Experimental findings from paper PMC4336329 (PLoS ONE, 2015) are described below.

Hit rate of the full screen: of about 310,000 compounds, about 14,000 (4.5%) showed an effect of 50% or more. Effects have a minus sign here. The list shows a part of the results.
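Note: peak tail current of the secondary pulse compared with the same well before compound.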

In the test the target is human ether-à-go-go-related gene (hERG) potassium channel (human, UniProt Q12809). Briefly: primary screen, population patch clamp on CHO cells stably expressing hERG.
human ether-à-go-go-related gene (hERG) potassium channel, sequence (Q12809 whole entry, looked up): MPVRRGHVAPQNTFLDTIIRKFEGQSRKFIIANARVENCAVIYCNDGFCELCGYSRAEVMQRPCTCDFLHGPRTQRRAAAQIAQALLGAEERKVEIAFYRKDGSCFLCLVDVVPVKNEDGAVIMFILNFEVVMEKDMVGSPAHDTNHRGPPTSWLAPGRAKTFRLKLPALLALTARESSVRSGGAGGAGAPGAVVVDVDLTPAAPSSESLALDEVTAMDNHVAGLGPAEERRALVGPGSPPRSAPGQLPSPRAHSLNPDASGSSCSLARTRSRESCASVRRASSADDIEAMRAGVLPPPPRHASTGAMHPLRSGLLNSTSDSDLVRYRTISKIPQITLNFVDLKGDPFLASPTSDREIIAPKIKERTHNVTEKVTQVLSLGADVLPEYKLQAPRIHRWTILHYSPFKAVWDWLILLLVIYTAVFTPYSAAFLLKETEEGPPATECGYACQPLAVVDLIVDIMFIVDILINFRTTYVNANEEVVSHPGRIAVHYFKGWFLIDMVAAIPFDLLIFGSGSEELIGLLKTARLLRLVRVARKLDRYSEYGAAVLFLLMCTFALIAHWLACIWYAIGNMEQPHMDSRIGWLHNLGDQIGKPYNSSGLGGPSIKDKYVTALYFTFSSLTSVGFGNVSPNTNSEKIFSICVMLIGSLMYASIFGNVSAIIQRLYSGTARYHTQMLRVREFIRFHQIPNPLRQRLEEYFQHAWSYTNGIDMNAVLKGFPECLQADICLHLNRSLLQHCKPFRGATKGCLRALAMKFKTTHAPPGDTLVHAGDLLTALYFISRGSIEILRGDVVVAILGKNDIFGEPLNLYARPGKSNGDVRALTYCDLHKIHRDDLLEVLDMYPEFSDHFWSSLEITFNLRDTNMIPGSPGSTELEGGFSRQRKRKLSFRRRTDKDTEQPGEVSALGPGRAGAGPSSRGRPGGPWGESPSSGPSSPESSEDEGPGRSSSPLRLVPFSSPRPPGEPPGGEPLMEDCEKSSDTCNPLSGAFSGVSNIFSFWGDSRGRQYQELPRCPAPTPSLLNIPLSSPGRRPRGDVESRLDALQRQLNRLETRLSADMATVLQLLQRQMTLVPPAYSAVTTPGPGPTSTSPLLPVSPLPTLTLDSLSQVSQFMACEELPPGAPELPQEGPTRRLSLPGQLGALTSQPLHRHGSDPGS
For `Cc1ccc(S(=O)(=O)N2CCCC2CNC(=O)C(=O)Nc2ccc(F)cc2)cc1` (stereo not drawn), the “hERG current change (%, negative = inhibition) at 10uM” value was -43.1%.
The same measure for `c1ccc2c3nnc4n(c-3nc2c1)CCCS4`: -24%; for `COc1ccc(C(=O)CSc2nnc(CNC(=O)c3ccc(OC)c(OC)c3)n2C)cc1`: -6.88%; for `COc1cc(OC)c2c(-c3ccccc3)cc(=O)oc2c1C(CC(=O)N1CCOCC1)c1ccc(N(C)C)cc1` (stereo not drawn): 1.42%.
Consider `CC(=O)N(CN1C(=O)c2ccccc2C1=O)c1ccccc1`, for which the “hERG current change (%, negative = inhibition) at 10uM” value was 9.8%.
The same measure for `CC(=O)Nc1cccc(NC(=O)Nc2cccc(Cl)c2C)c1`: 29.5%; for `CCCOc1ccc(-c2nnn(CC(=O)Nc3cccc(C(=O)OC)c3)n2)cc1`: 1.61%; for `O=C(N/N=C/c1ccccn1)c1ccc(Cl)cc1`: -23.1%.
As to `Cc1nc2sccn2c(=O)c1CCN1CCC(=C(c2ccc(F)cc2)c2ccc(F)cc2)CC1`, the “hERG current change (%, negative = inhibition) at 10uM” value is -78.6%.
For `Cc1ccc2nc(-c3sc4nc(C)ccc4c3N)[nH]c2c1`, the “hERG current change (%, negative = inhibition) at 10uM” value worked out at 9.66%.
In the case of `O=C(O)c1ccccc1C(=O)NCC(O)COc1ccc(Cl)cc1` (stereo not drawn), the “hERG current change (%, negative = inhibition) at 10uM” value was found to be 2.34%.
Under `Cc1nnc2ccc(N3CCCCC3)nn12` stands 6.15%.
The same measure for `COc1ccc(-n2nnnc2SCC(=O)N2CCCC2)cc1OC`: 12%; for `O=C(Cn1c(=O)oc2ccccc21)Nc1nc(-c2ccccc2)cs1`: 15.2%; for `Cc1noc(/C=C/c2ccco2)c1S(=O)(=O)N1CCC(C(=O)NC(C)c2ccccc2)CC1` (stereo not drawn): 9.3%.
As for `CCc1cc2c(=O)c(-c3ccc4c(c3)OCCO4)coc2cc1OS(C)(=O)=O`, the “hERG current change (%, negative = inhibition) at 10uM” value is on record as 12.9%.
Take `COc1ccc2c(c1)c(CCNNC(=O)C(C)(C)C)c(C)n2C(=O)c1ccc(Cl)cc1`: the “hERG current change (%, negative = inhibition) at 10uM” value is given as -21.2%.
Take `CCC(=O)N/N=C(\C)CC(=O)Nc1ccc(Cl)cc1`: the “hERG current change (%, negative = inhibition) at 10uM” value is -3.4%.
Under `CC(=O)c1cccc(NC(=O)C2CCCCC2)c1` stands 10.4%.
Under `CN(C)CCCNCCCNC(=O)c1ccccn1` stands -0.317%.
For `CC(C)C(=O)NCc1cc(-c2ccccc2)no1`, the “hERG current change (%, negative = inhibition) at 10uM” value was 16.8%.
Regarding `COc1ccc(NC(=O)c2cccc(S(=O)(=O)NCc3ccccc3)c2)cc1S(N)(=O)=O`, the “hERG current change (%, negative = inhibition) at 10uM” value is on record as -6.19%.
For the compound `CC1(C(=O)NC2CCCCCCC2)CCC(=O)N1Cc1cccs1` (stereo not drawn), the “hERG current change (%, negative = inhibition) at 10uM” value was -10.8%.
Under `COc1ccc(-c2nnnn2C)cc1S(=O)(=O)Nc1ccc(C)cc1C` stands -7.53%.
The same measure for `CCOP(=O)(OCC)C(NC(=O)C(C)C)C(Cl)(Cl)Cl` (stereo not drawn): 3.71%; for `C=CCOc1ccc(C2c3c(oc4ccccc4c3=O)C(=O)N2CCCN2CCOCC2)cc1` (stereo not drawn): -47.8%.
The same measure for `CCOc1ccc(C(=O)NCCCN(CC)CC)cc1`: -51.8%.
For the compound `Cc1ccc(Cn2ccc(NC(=O)c3c(-c4ccccc4Cl)noc3C)n2)cc1`, the “hERG current change (%, negative = inhibition) at 10uM” value is listed as -15.7%.
For `CCC(=O)Nc1ccc2c(c1)nc1n2CCSC1`, the “hERG current change (%, negative = inhibition) at 10uM” value was 4.81%.
The same measure for `C/C(=N\NC(=O)C1CC1)c1ccc(N2CCOCC2)cc1`: -0.403%.
Under `Oc1ccc(NC(=S)Nc2ccccc2)cc1` stands 6.12%.
On to `COc1ccc(C(=O)NC(Nc2ccc(C)cc2)C(Cl)(Cl)Cl)cc1` (stereo not drawn), for which the “hERG current change (%, negative = inhibition) at 10uM” value is reported as -0.867%.
Under `CCOc1ncccc1C(=O)OCC(=O)N1c2ccccc2CC1C` (stereo not drawn) stands -19.1%.
The same measure for `O=C(CN1CCN(Cc2ccccc2)CC1)Nc1ccc(Br)cc1`: -71.9%; for `COc1ccc(CNC(=O)COC(=O)c2ccc(Br)o2)cc1`: 6.76%; for `COc1ccc(S(=O)(=O)Nc2ccccc2-c2nc3ccccc3[nH]c2=O)cc1`: -9.79%.
The same measure for `COc1ccc(CNC(=O)CCn2c(=O)c3cccn3c3ccc(F)cc32)cc1`: -7.82%; for `O=C(c1oc(=O)c2ccccc2c1-c1ccccc1)N1CCC(O)CC1`: -11.6%; for `O=C(NCc1ccc(F)cc1)C1CCN(C(=O)Nc2ccc(F)cc2)CC1`: -49.2%.
Consider `O=C(N1CCC(O)(c2cccnc2)CC1)C12CC3CC(CC(C3)C1)C2`, for which the “hERG current change (%, negative = inhibition) at 10uM” value is given as -5.02%.
For `CO/N=C/c1ccc(N2CCN(C(=O)c3cccc(C(F)(F)F)c3)CC2)c([N+](=O)[O-])c1`, the “hERG current change (%, negative = inhibition) at 10uM” value is -43.5%.
The same measure for `O=C(CN1C(=O)/C(=C/c2ccccc2)SC1=S)NC1CCS(=O)(=O)C1` (stereo not drawn): 14.9%; for `CCOc1ccccc1N(C)S(=O)(=O)c1ccc2c(c1)N(C(C)=O)CCO2`: 11.9%; for `CCC(C)NC(=O)C1CCCN(C(=O)NC2CCCCC2)C1` (stereo not drawn): 13.8%.
In the case of `CC(C)Cn1c(=O)c2c(nc3n2CCCN3CCc2ccccc2)n(C)c1=O`, the “hERG current change (%, negative = inhibition) at 10uM” value is listed as -76%.
Consider `NC(=O)c1ccc(NC(=O)COc2coc(CN3CCc4ccccc4C3)cc2=O)cc1`, for which the “hERG current change (%, negative = inhibition) at 10uM” value is given as -1.88%.
As to `COc1ccc(N(CC(=O)Nc2ccc3c(c2)OCO3)S(=O)(=O)c2ccccc2)cc1OC`, the “hERG current change (%, negative = inhibition) at 10uM” value came to 4.09%.
For the compound `CCCNC(=O)CS(=O)(=O)Cc1nc(-c2ccccc2C)oc1C`, the “hERG current change (%, negative = inhibition) at 10uM” value is 3.88%.
Under `CC(NC(=O)COC(=O)c1cc(=O)[nH]c2ccccc12)c1ccccc1` (stereo not drawn) stands 10.7%; under `CCCCc1ccc(S(=O)(=O)NC2CCS(=O)(=O)C2)cc1` (stereo not drawn), -2.26%.
Consider `Cl.OC(COc1ccc(Cl)c2ccccc12)CN1CCN(c2ccccn2)CC1` (stereo not drawn), for which the “hERG current change (%, negative = inhibition) at 10uM” value is -21.9%.
With `Cc1ccc(-n2c(C)cc(C)c(C#N)c2=O)cc1Cl`, the “hERG current change (%, negative = inhibition) at 10uM” value is 0.68%.
Under `CN1CCN(C(=O)C2CCCN(S(=O)(=O)c3ccccc3)C2)CC1` (stereo not drawn) stands 13.8%.
Under `COc1cc(C(=O)OCCc2cc3ccccc3c(=O)o2)cc(OC)c1OC` stands -14.6%.
The same measure for `O=C(NCC1CCN(Cc2ccccc2F)CC1)Nc1cccc(Br)c1`: -43.2%; for `CCC(COC)NC(=O)c1ccc(OC)c(OC2CCN(C(C)=O)CC2)c1` (stereo not drawn): 8.31%; for `N#Cc1ccccc1NC(=O)C1SC(=Nc2ccccc2)C(C(=O)Nc2ccc(Cl)cc2)=C1N` (stereo not drawn): 8.69%.
Take `COc1ccccc1-c1noc(-c2cccnc2)n1`: the “hERG current change (%, negative = inhibition) at 10uM” value is listed as 11.9%.
Under `Cc1ccc(N2C(=O)C(F)(F)C2c2ccccc2)cc1` (stereo not drawn) stands 13.6%; under `COc1ccc(CN2C(=O)c3ccccc3C2=O)cc1C(=O)O`, 25.6%; under `O=c1[nH]c(-c2ccccc2)nc2sc(-c3ccccc3)cc12`, 11.5%.
Under `COc1cc(C)c(CN2CC=C(c3ccc(F)cc3)CC2)cc1C` stands -37.2%; under `Cc1cc(C(=O)Nc2ccc(S(=O)(=O)N3CCOCC3)cc2)ccc1[N+](=O)[O-]`, -46.8%; under `CCCCn1c(-c2csc(CCC)c2)n[nH]c1=S`, 14.8%.
As to `COC(=O)CNC(=O)Cn1nc(C)c([N+](=O)[O-])c1C`, the “hERG current change (%, negative = inhibition) at 10uM” value turned out to be 9.11%.
Consider `COc1ccccc1N=Nc1c(O)[nH]c2ccc(Br)cc12`, for which the “hERG current change (%, negative = inhibition) at 10uM” value was determined as 14.2%.
On to `CC(C)Cn1c(N)c(C(=O)COC(=O)C2CC(=O)N(Cc3ccccc3Cl)C2)c(=O)n(C)c1=O` (stereo not drawn), for which the “hERG current change (%, negative = inhibition) at 10uM” value is given as -43.1%.
The same measure for `Cc1cccc(N2CCN(C(=O)c3cc4c(=O)n(C)c5ccccc5c4n3C)CC2C)c1` (stereo not drawn): -16%; for `CCS(=O)(=O)Nc1ccc(C(=O)OC)cc1`: 7.75%; for `Cc1nn(C)c(C)c1CNC(=O)Nc1cccc(Cl)c1`: 6.93%.
The same measure for `O=C(O)C(c1ccccc1)N1C(=O)/C(=C\c2ccc(O)c(O)c2)SC1=S` (stereo not drawn): 25.2%; for `O=C(NCC1CCCO1)c1cccc(S(=O)(=O)N(Cc2ccccc2)c2ccccc2)c1` (stereo not drawn): -37.1%; for `CCCOc1ccc(C(=O)CCC(=O)OCC(=O)N(C)c2c(N)n(Cc3ccccc3)c(=O)[nH]c2=O)cc1`: -1.28%.
`COc1cccc(Oc2c(C)oc3c(CN4CCCCC4)c(O)ccc3c2=O)c1`: the “hERG current change (%, negative = inhibition) at 10uM” value came to 17.7%.
Take `O=C(Nc1cc(Cl)ccc1O)C1CCCO1` (stereo not drawn): the “hERG current change (%, negative = inhibition) at 10uM” value was found to be 7.88%.
With `Br.CCCN(CCC)C1CCc2cccc(O)c2C1` (stereo not drawn), the “hERG current change (%, negative = inhibition) at 10uM” value is on record as -10.6%.
Take `O=C(CSc1ncn[nH]1)N(C1CCCCC1)C1CCCCC1`: the “hERG current change (%, negative = inhibition) at 10uM” value was -16.5%.
The same measure for `CC(C)=CCCC(C)CN1CCC(n2nccc2NC(=O)C2CCCC2)CC1` (stereo not drawn): -70.8%; for `CCOC(=O)CSc1nnc(-c2ccc(S(=O)(=O)N3CCC(C)CC3)cc2)o1`: -5.93%.
On to `Cc1ccc(N2C(=O)N(CC(=O)N3CCCc4ccccc43)C(=O)C2C)cc1` (stereo not drawn), for which the “hERG current change (%, negative = inhibition) at 10uM” value was 4.51%.
`Cc1ccc(CNC(=O)c2ccc3c(=O)n(CCCN4CCCC4=O)c(=S)[nH]c3c2)cc1`: the “hERG current change (%, negative = inhibition) at 10uM” value was found to be 6.41%.
Regarding `Cc1ccccc1N(CC(=O)Nc1ccc(F)cc1)S(C)(=O)=O`, the “hERG current change (%, negative = inhibition) at 10uM” value came to 1.27%.
The same measure for `CCOc1ccccc1CN1CCNC(=O)C1CC(=O)NCCC1=CCCCC1` (stereo not drawn): 4.15%; for `CCOc1ccc(S(=O)(=O)Nc2cc(OC)ccc2OC)cc1`: -12.4%.
For the compound `Cc1ccc(S(=O)(=O)NC(=O)Nc2cccc(C)n2)cc1`, the “hERG current change (%, negative = inhibition) at 10uM” value was 27.8%.
With `CC(=O)Nc1cc(C)nn1-c1nc(C)cc(C)n1`, the “hERG current change (%, negative = inhibition) at 10uM” value is reported as 25.4%.
Under `O=S(=O)(NC1CCCCC1)c1ccc(Cl)s1` stands -6.76%; under `S=C(c1ccccc1)N1CCSCC1`, 6.14%; under `CCOC(=O)N1CCN(Cc2nnc(-c3ccccc3C)o2)CC1.Cl`, 10.3%.
Under `COc1ccccc1CNC(=O)C1(c2ccc(Cl)cc2)CC1` stands -11.7%.
